# Measured values reported in the antibiotic and cytotoxicity screens of Wong et al. (2023).
# This is one part of the list.
# Tested on: HSkMC (human skeletal muscle cells)
# Assay: cytotoxicity call (relative viability < 0.9)
# Conditions: 10 µM
row,Structure (SMILES),cytotoxicity call
1,C[C@H]1CN([C@@H](C)CO)C(=O)c2cc(NC(=O)CCCN(C)C)ccc2O[C@@H]1CN(C)C(=O)NC1CCCCC1,inactive
2,CC(/C=C/C(=O)NO)=C\c1ccccc1OCc1cn(-c2ccc(C[C@H]3C(=O)O[C@@H](Cc4ccccc4)[C@H]4[C@@H]5C=CCCC=C5CN43)cc2)nn1,inactive
3,COc1ccc(C#Cc2cnc3c(c2)C(=O)N([C@H](C)CO)C[C@H](C)[C@@H](CN(C)C(=O)CN(C)C)O3)cc1,inactive
4,O=C1N[C@@H](Cc2ccccc2)C(=O)N2[C@@H]1C[C@@H](C(=O)NCc1ccc(F)cc1)[C@H]2c1cccc(OCCO)c1,inactive
5,COc1ccc(S(=O)(=O)Nc2ccc3c(c2)C(=O)N([C@H](C)CO)C[C@@H](C)[C@H](CN(C)C(=O)Nc2c(C)noc2C)O3)cc1,inactive
6,C[C@@H]1CN([C@H](C)CO)C(=O)c2cc(NC(=O)C3CCCCC3)ccc2O[C@@H](C)CCCCO[C@@H]1CN(C)Cc1ccncc1,inactive
7,Cc1ccc(S(=O)(=O)N(C)C[C@@H]2OCCCC[C@H](C)Oc3ccc(NC(=O)CCC(F)(F)F)cc3C(=O)N([C@@H](C)CO)C[C@H]2C)cc1,inactive
8,Cc1cc(C)c(NC(=O)[C@@H](N)Cc2ccccc2)c(Cl)c1,inactive
9,N[C@@H]1CCCN(Cc2ccncc2)[C@H]1c1ccccc1F,inactive
10,CC(C)NC(=O)Nc1ccc2c(c1)CC(=O)N([C@H](C)CO)C[C@H](C)[C@@H](CN(C)C(=O)Nc1ccc3c(c1)OCO3)O2,inactive
11,Cc1ccc(S(=O)(=O)Nc2ccc3c(c2)C(=O)N([C@H](C)CO)C[C@@H](C)[C@@H](CN(C)C(=O)Nc2c(C)noc2C)OCCCC[C@@H](C)O3)cc1,inactive
12,C[C@H]1CCCCO[C@H](CN(C)S(=O)(=O)c2ccccc2)[C@@H](C)CN([C@@H](C)CO)C(=O)c2cc(NC(=O)NC3CCCCC3)ccc2O1,inactive
13,CO[C@@H](CN(C)S(=O)(=O)c1cccc(Cl)c1)[C@@H](C)CN([C@H](C)CO)S(=O)(=O)c1cccc(Cl)c1,inactive
14,CCCC(CCC)C(=O)[O-].[Na+],inactive
15,COc1ccccc1CNC(=O)C[C@H]1C[C@H]2c3cc(NC(=O)C4CCOCC4)ccc3O[C@H]2[C@H](CO)O1,inactive
16,Cc1noc(C)c1NC(=O)Nc1ccc2c(c1)CC(=O)N([C@@H](C)CO)C[C@H](C)[C@H](CN(C)CC1CC1)O2,inactive

row,Structure (SMILES),cytotoxicity call
1,COc1cccc(CNC(=O)c2cc3c(c(-c4cccc(-c5cccc(C#N)c5)c4)n2)[C@H](CCO)N([S@@](=O)C(C)(C)C)C3)c1,inactive
2,C[C@@H]1CCCCO[C@H](CN(C)Cc2ccc(C(=O)O)cc2)[C@@H](C)CN([C@H](C)CO)C(=O)c2cc(NC(=O)NC3CCCCC3)ccc2O1,inactive
3,O=C(O)c1cncnc1N1CCCC1,inactive
4,COc1ccc(NC(=O)N(C)C[C@@H]2OCCCC[C@@H](C)Oc3ccc(NC(=O)Nc4ccccc4)cc3C(=O)N([C@H](C)CO)C[C@@H]2C)cc1,inactive
5,O=C(N[C@@H]1C=C[C@H](CC(=O)N2CCOCC2)O[C@@H]1CO)c1ccccn1,inactive
6,Cc1noc(C)c1NC(=O)Nc1ccc2c(c1)CC(=O)N([C@H](C)CO)C[C@@H](C)[C@@H](CN(C)Cc1ccc(C(=O)Nc3ccccc3N)cc1)O2,inactive
7,C[C@@H]1CN([C@@H](C)CO)C(=O)c2cc(-c3ccncc3)cnc2O[C@@H]1CN(C)S(=O)(=O)c1ccccc1,inactive
8,C[C@@H]1CN([C@H](C)CO)C(=O)CCCn2nncc2CO[C@H]1CN(C)C(=O)Nc1cccc(C(F)(F)F)c1,inactive
9,COC(=O)[C@H](Cc1ccccc1)N1CC2=C[C@@H]([C@@H](O)CCn3cc(-c4ccc(C(=O)NO)s4)nn3)n3c(=O)n(C)c(=O)n3[C@@H]2[C@@H](C2CC2)O1,inactive
10,O=C(NCCc1ccccc1)c1nnc[nH]1,inactive
11,CO[C@@H]1CN(C)C(=O)c2cc(NS(C)(=O)=O)ccc2OC[C@H](C)N(C(=O)c2ccc3c(c2)OCO3)C[C@@H]1C,inactive
12,COC(=O)CCc1c(C)[nH]c(=S)[nH]c1=O,inactive
13,O=C(O)CN(CCc1ccccc1)CC(=O)O,inactive
14,Cc1ccc(S(=O)(=O)N(C)C[C@@H]2Oc3ccc(NC(=O)NC(C)C)cc3C(=O)N([C@@H](C)CO)C[C@H]2C)cc1,inactive
15,O=C(CS(=O)(=O)c1cccc2nsnc12)N1CC(=O)N(CCc2ccccc2)C(=O)C1,inactive
